A lower IC50 marks a more sensitive line; a fit beyond the top or the lowest dose is shown as a bound at that dose. For AUC the same curve is integrated over the 256-fold range of doses and scaled to a fraction; values near 1 show little effect. For part of these data: The top dose, if marked as inferred, was calculated from the reported fits. For part of these data: Where an entry number is given, a second screen of the drug exists; the two often differ.
How the values were obtained:
Experiment in all cases: Viability of human cancer cell lines after 72 h of drug (GDSC screen)
GSK1070916 = compound: CCn1cc(-c2ccnc3[nH]c(-c4cccc(CN(C)C)c4)cc23)c(-c2ccc(NC(=O)N(C)C)cc2)n1 [GSK1070916]; conditions: top dose inferred
Experimental: (§1)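 Human cancer cell lines in 384-well plates, medium with 10% serum, drug for 72 h over a 256-fold dose range (nine 2-fold or five 4-fold steps up to the top dose). Adherent lines were fixed and stained with the nucleic acid dye Syto60, suspension lines read with resazurin; signal relative to control wells, capped at 0 and 100%. One two-parameter sigmoid per drug and line, fitted in a mixed model over all curves with the slope shared within a line.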

NSC-207895 = compound: CN1CCN(c2ccc([N+](=O)[O-])c3no[n+]([O-])c23)CC1 [NSC-207895]; conditions: top dose 20 µM; top dose inferred
Experimental: as §1

FTI-277 = compound: COC(=O)[C@H](CCSC)NC(=O)c1ccc(NC[C@@H](N)CS)cc1-c1ccccc1 [FTI-277]; conditions: top dose 1.024 µM; top dose inferred
Experimental: as §1

YM155 = compound: COCC[n+]1c2c(n(Cc3cnccn3)c1C)C(=O)c1ccccc1C2=O [YM155]; conditions: top dose 5.12 µM
Experimental: as §1

OSI-906 = compound: C[C@]1(O)C[C@@H](c2nc(-c3ccc4ccc(-c5ccccc5)nc4c3)c3c(N)nccn32)C1 [OSI-906]; conditions: top dose 2.56 µM; top dose inferred
Experimental: as §1

SB-715992 = compound: Cc1ccc(C(=O)N(CCCN)[C@@H](c2nc3cc(Cl)ccc3c(=O)n2Cc2ccccc2)C(C)C)cc1 [SB-715992]; conditions: top dose 0.128 µM; top dose inferred
Experimental: as §1

JQ1 = compound: Cc1sc2c(c1C)C(c1ccc(Cl)cc1)=N[C@@H](CC(=O)OC(C)(C)C)c1nnc(C)n1-2 [JQ1]
Experimental: as §1

JNJ-26854165 = compound: c1ccc2c(CCNc3ccc(Nc4ccncc4)cc3)c[nH]c2c1 [JNJ-26854165]; conditions: top dose 10 µM
Experimental: as §1

Belinostat = compound: O=C(/C=C/c1cccc(S(=O)(=O)Nc2ccccc2)c1)NO [Belinostat]; conditions: top dose 20 µM; top dose inferred
Experimental: as §1

[1] = top dose 1 µM, screen: GDSC drug entry 1218, top dose inferred
[2] = top dose 2.56 µM, screen: GDSC drug entry 163

| Cell Line | AUC (GSK1070916) | IC50 (GSK1070916) | also measured |
| --- | --- | --- | --- |
| TK10 (kidney, adherent, top dose 2.56 µM) | 0.931 | > 2560 nM | – |
| TK (B-cell lymphoma, suspension, top dose 2.56 µM) | 0.89 | 2510 nM | – |
| TMK-1 (stomach, adherent, top dose 2.56 µM) | 0.986 | > 2560 nM | – |
| TOV-21G (ovary, adherent, top dose 2.56 µM) | 0.967 | > 2560 nM | – |
| TOV-112D (ovary, adherent, top dose 2.56 µM) | 0.796 | 1210 nM | – |
| TT (thyroid, adherent, top dose 2.56 µM) | 0.983 | > 2560 nM | – |
| TUR (B-cell lymphoma, suspension, top dose 2.56 µM) | 0.904 | > 2560 nM | – |
| TYK-nu (ovary, adherent, top dose 2.56 µM) | 0.983 | > 2560 nM | – |
| U031 (kidney, adherent, top dose 2.56 µM) | 0.892 | > 2560 nM | – |
| U-2-OS (osteosarcoma, adherent, top dose 2.56 µM) | 0.95 | > 2560 nM | – |
| U-87-MG (glioma, adherent, top dose 2.56 µM) | 0.973 | > 2560 nM | – |
| U-118-MG (glioma, adherent, top dose 2.56 µM) | 0.986 | > 2560 nM | – |
| U-698-M (B-cell leukaemia, suspension, top dose 2.56 µM) | 0.969 | > 2560 nM | – |
| UACC-62 (melanoma, adherent, top dose 2.56 µM) | 0.983 | > 2560 nM | – |
| UACC-257 (melanoma, adherent, top dose 2.56 µM) | 0.946 | > 2560 nM | – |
| UACC-812 (breast, adherent, top dose 2.56 µM) | 0.981 | > 2560 nM | – |
| UACC-893 (breast, adherent, top dose 2.56 µM) | 0.981 | > 2560 nM | – |
| UM-UC-3 (bladder, adherent, top dose 2.56 µM) | 0.929 | > 2560 nM | – |
| UMC-11 (lung carcinoid, adherent, top dose 2.56 µM) | 0.94 | > 2560 nM | – |
| UWB1.289 (ovary, adherent, top dose 2.56 µM) | 0.96 | > 2560 nM | – |
| VA-ES-BJ (soft tissue, adherent, top dose 2.56 µM) | 0.971 | > 2560 nM | – |
| VCaP (prostate, adherent, top dose 2.56 µM) | 0.865 | 2410 nM | – |

| Cell Line | AUC (GSK1070916) | IC50 (GSK1070916) | also measured |
| --- | --- | --- | --- |
| VM-CUB-1 (bladder, adherent, top dose 2.56 µM) | 0.988 | > 2560 nM | – |
| VMRC-MELG (melanoma, adherent, top dose 2.56 µM) | 0.988 | > 2560 nM | – |
| VMRC-RCW (kidney, adherent, top dose 2.56 µM) | 0.982 | > 2560 nM | – |
| VMRC-RCZ (kidney, adherent, top dose 2.56 µM) | 0.854 | > 2560 nM | – |
| WIL2-NS (lymphoid neoplasm, suspension, top dose 2.56 µM) | 0.826 | 1180 nM | – |
| WM35 (melanoma, adherent, top dose 2.56 µM) | 0.911 | > 2560 nM | – |
| WM278 (melanoma, adherent) | – | – | AUC (NSC-207895): 0.976; IC50 (NSC-207895): > 20000 nM; AUC (FTI-277): 0.983; IC50 (FTI-277): > 1020 nM; AUC (YM155): 0.386; IC50 (YM155): 149 nM; AUC (OSI-906): 0.956; IC50 (OSI-906): > 2560 nM; AUC (SB-715992): 0.825; IC50 (SB-715992): 90.5 nM; AUC (JQ1; [1]): 0.978; IC50 (JQ1; [1]): > 1000 nM; AUC (JQ1; [2]): 0.651; IC50 (JQ1; [2]): 444 nM; AUC (JNJ-26854165): 0.892; IC50 (JNJ-26854165): > 10000 nM |
| WM278 (melanoma, adherent, top dose 2.56 µM) | 0.924 | > 2560 nM | – |
| WM793B (melanoma, adherent, top dose 2.56 µM) | 0.917 | > 2560 nM | – |
| WM1552C (melanoma, adherent, top dose 2.56 µM) | 0.908 | > 2560 nM | – |
| WM-115 (melanoma, adherent, top dose 2.56 µM) | 0.929 | > 2560 nM | – |
| WSU-DLCL2 (B-cell lymphoma, suspension, top dose 2.56 µM) | 0.975 | > 2560 nM | – |
| WSU-NHL (lymphoid neoplasm, suspension, top dose 2.56 µM) | 0.842 | 1490 nM | – |
| YAPC (pancreas, adherent, top dose 2.56 µM) | 0.961 | > 2560 nM | – |
| YH-13 (glioma, adherent, top dose 2.56 µM) | 0.968 | > 2560 nM | – |
| YKG-1 (glioma, adherent, top dose 2.56 µM) | 0.858 | 2160 nM | – |
| YMB-1-E (breast, adherent) | – | – | AUC (NSC-207895): 0.971; IC50 (NSC-207895): > 20000 nM; AUC (YM155): 0.297; IC50 (YM155): 68.5 nM; AUC (SB-715992): 0.961; IC50 (SB-715992): > 128 nM; AUC (Belinostat): 0.681; IC50 (Belinostat): 4870 nM |
| YMB-1-E (breast, adherent, top dose 2.56 µM) | 0.982 | > 2560 nM | – |
| YT (lymphoid neoplasm, suspension, top dose 2.56 µM) | 0.964 | > 2560 nM | – |
| huH-1 (liver, adherent, top dose 2.56 µM) | 0.984 | > 2560 nM | – |
| no-10 (glioma, adherent, top dose 2.56 µM) | 0.98 | > 2560 nM | – |
| no-11 (glioma, adherent, top dose 2.56 µM) | 0.913 | > 2560 nM | – |
